# Data taken from the supplement of paper PMC8728848.
# The other results are listed elsewhere or left out.
# B1: DrGRIFIN (Danio rerio), Q6DGJ1 (protein)
# chain: MTLRFEASCPDGLCPGWSVILKGETPPEASKFEINFLCDRDDRVAFHFNPRFTESDIICNSYMANRWGQEERCNHFPLGVEEPFQIEIYSDNDHFHVYIDKAKVMQYKHRVEDLKTITKLQVVNDVKISSLEITKKLFY
# Assays:
# Test in all cases: glycan array binding signal (z-score within array); higher = stronger binding
# Conditions in all cases: glycan notation: IUPAC condensed, linker removed
# [1] = biological target: Man(a1-2)Man(a1-3)[Man(a1-2)Man(a1-6)]Man(a1-6)[Man(a1-2)Man(a1-2)Man(a1-3)]Man
# How it was run: (§1)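 Glycan array binding is given as a within-array Z-score, which can be read as non-binding when negative. The arrays, 3228 of them, came from the Consortium for Functional Glycomics database and were retained only where the protein sequence was available. Z-scores were averaged across arrays of the same protein sequence at different concentrations or buffers and across linkers.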
# [2] = biological target: Man(a1-2)Man(a1-3)[Man(a1-2)Man(a1-6)]Man(a1-6)[Man(a1-2)Man(a1-2)Man(a1-3)]Man(b1-4)GlcNAc(b1-4)GlcNAc
# How it was run: as §1
# [3] = biological target: Man(a1-2)Man(a1-3)[Man(a1-6)]Man(a1-6)[Man(a1-2)Man(a1-3)]Man(b1-4)GlcNAc(b1-4)GlcNAc
# How it was run: as §1
# [4] = biological target: Man(a1-2)Man(a1-6)[Man(a1-3)]Man(a1-6)[Man(a1-2)Man(a1-2)Man(a1-3)]Man
# How it was run: as §1
# [5] = biological target: Man(a1-2)Man(a1-6)[Man(a1-3)]Man(a1-6)[Man(a1-2)Man(a1-2)Man(a1-3)]Man(b1-4)GlcNAc(b1-4)GlcNAc
# How it was run: as §1
# Man(a1-3)[Man(a1-6)]Man = biological target: Man(a1-3)[Man(a1-6)]Man
# How it was run: as §1
# [6] = biological target: Man(a1-3)[Man(a1-6)]Man(a1-6)[Man(a1-2)Man(a1-3)]Man(b1-4)GlcNAc(b1-4)GlcNAc
# How it was run: as §1
# [7] = biological target: Man(a1-3)[Man(a1-6)]Man(a1-6)[Man(a1-3)]Man
# How it was run: as §1
# [8] = biological target: Man(a1-3)[Man(a1-6)]Man(a1-6)[Man(a1-3)]Man(b1-4)GlcNAc(b1-4)GlcNAc
# How it was run: as §1
# [9] = biological target: Man(a1-3)[Man(a1-6)]Man(b1-4)GlcNAc(b1-4)GlcNAc
# How it was run: as §1
# [10] = biological target: Man(a1-3)[Man(a1-6)]Man(b1-4)GlcNAc(b1-4)[Fuc(a1-6)]GlcNAc
# How it was run: as §1
# Man(a1-6)Man = biological target: Man(a1-6)Man
# How it was run: as §1
# Man(b1-4)GlcNAc = biological target: Man(b1-4)GlcNAc
# How it was run: as §1
# MurNAc(b1-4)GlcNAc = biological target: MurNAc(b1-4)GlcNAc
# How it was run: as §1
# Neu5Ac(a2-3)Gal = biological target: Neu5Ac(a2-3)Gal
# How it was run: as §1
# [11] = biological target: Neu5Ac(a2-3)Gal(b1-3)GalNAc
# How it was run: as §1
# [12] = biological target: Neu5Ac(a2-3)Gal(b1-3)GalNAc(b1-3)Gal(a1-4)Gal(b1-4)Glc
# How it was run: as §1
# [13] = biological target: Neu5Ac(a2-3)Gal(b1-3)GalNAc(b1-4)Gal(b1-4)Glc
# How it was run: as §1
# [14] = biological target: Neu5Ac(a2-3)Gal(b1-3)GalNAc(b1-4)[Neu5Ac(a2-3)]Gal(b1-4)Glc
# How it was run: as §1
# [15] = biological target: Neu5Ac(a2-3)Gal(b1-3)GalNAc(b1-4)[Neu5Ac(a2-8)Neu5Ac(a2-3)]Gal(b1-4)Glc
# How it was run: as §1
# [16] = biological target: Neu5Ac(a2-3)Gal(b1-3)GalNAc6S
# How it was run: as §1
# [17] = biological target: Neu5Ac(a2-3)Gal(b1-3)GlcNAc
# How it was run: as §1
# [18] = biological target: Neu5Ac(a2-3)Gal(b1-3)GlcNAc(b1-2)Man
# How it was run: as §1
# [19] = biological target: Neu5Ac(a2-3)Gal(b1-3)GlcNAc(b1-2)Man(a1-3)[GlcNAc(b1-4)][Neu5Ac(a2-3)Gal(b1-3)GlcNAc(b1-2)Man(a1-6)]Man(b1-4)GlcNAc(b1-4)GlcNAc
# How it was run: as §1
# [20] = biological target: Neu5Ac(a2-3)Gal(b1-3)GlcNAc(b1-2)Man(a1-3)[Neu5Ac(a2-3)Gal(b1-3)GlcNAc(b1-2)Man(a1-6)]Man(b1-4)GlcNAc(b1-4)GlcNAc
# How it was run: as §1
# [21] = biological target: Neu5Ac(a2-3)Gal(b1-3)GlcNAc(b1-2)[Neu5Ac(a2-3)Gal(b1-3)GlcNAc(b1-4)]Man(a1-6)[Neu5Ac(a2-3)Gal(b1-3)GlcNAc(b1-2)Man(a1-3)]Man(b1-4)GlcNAc(b1-4)GlcNAc
# How it was run: as §1
# [22] = biological target: Neu5Ac(a2-3)Gal(b1-3)GlcNAc(b1-3)Gal(b1-3)GlcNAc
# How it was run: as §1
# [23] = biological target: Neu5Ac(a2-3)Gal(b1-3)GlcNAc(b1-3)Gal(b1-4)GlcNAc
# How it was run: as §1
# [24] = biological target: Neu5Ac(a2-3)Gal(b1-3)GlcNAc(b1-3)GalNAc
# How it was run: as §1
# [25] = biological target: Neu5Ac(a2-3)Gal(b1-3)GlcNAc(b1-6)GalNAc
# How it was run: as §1
# [26] = biological target: Neu5Ac(a2-3)Gal(b1-3)GlcNAc6S
# How it was run: as §1
# [27] = biological target: Neu5Ac(a2-3)Gal(b1-3)[Fuc(a1-4)]GlcNAc
# How it was run: as §1
# [28] = biological target: Neu5Ac(a2-3)Gal(b1-3)[Fuc(a1-4)]GlcNAc(b1-3)Gal(b1-3)[Fuc(a1-4)]GlcNAc
# How it was run: as §1
# [29] = biological target: Neu5Ac(a2-3)Gal(b1-3)[Fuc(a1-4)]GlcNAc(b1-3)Gal(b1-4)[Fuc(a1-3)]GlcNAc
# How it was run: as §1
# [30] = biological target: Neu5Ac(a2-3)Gal(b1-3)[GlcNAc(b1-6)]GalNAc
# How it was run: as §1
# [31] = biological target: Neu5Ac(a2-3)Gal(b1-3)[Neu5Ac(a2-6)]GalNAc
# How it was run: as §1
# [32] = biological target: Neu5Ac(a2-3)Gal(b1-3)[Neu5Ac(a2-6)]GlcNAc(b1-3)[Fuc(a1-3)[Gal(b1-4)]GlcNAc(b1-6)]Gal(b1-4)Glc
# How it was run: as §1
binder,measurement,setting,value
B1,glycan array binding signal (z-score),[1],-0.188
same,glycan array binding signal (z-score),[2],-0.153
same,glycan array binding signal (z-score),[3],-0.15
same,glycan array binding signal (z-score),[4],-0.123
same,glycan array binding signal (z-score),[5],-0.15
same,glycan array binding signal (z-score),Man(a1-3)[Man(a1-6)]Man,-0.172
same,glycan array binding signal (z-score),[6],-0.189
same,glycan array binding signal (z-score),[7],-0.187
same,glycan array binding signal (z-score),[8],-0.195
same,glycan array binding signal (z-score),[9],-0.171
same,glycan array binding signal (z-score),[10],-0.185
same,glycan array binding signal (z-score),Man(a1-6)Man,-0.192
same,glycan array binding signal (z-score),Man(b1-4)GlcNAc,-0.172
same,glycan array binding signal (z-score),MurNAc(b1-4)GlcNAc,-0.068
same,glycan array binding signal (z-score),Neu5Ac(a2-3)Gal,-0.134
same,glycan array binding signal (z-score),[11],-0.198
same,glycan array binding signal (z-score),[12],-0.212
same,glycan array binding signal (z-score),[13],-0.122
same,glycan array binding signal (z-score),[14],-0.189
same,glycan array binding signal (z-score),[15],-0.167
same,glycan array binding signal (z-score),[16],-0.194
same,glycan array binding signal (z-score),[17],-0.121
same,glycan array binding signal (z-score),[18],-0.165
same,glycan array binding signal (z-score),[19],-0.143
same,glycan array binding signal (z-score),[20],-0.169
same,glycan array binding signal (z-score),[21],-0.215
same,glycan array binding signal (z-score),[22],-0.131
same,glycan array binding signal (z-score),[23],-0.166
same,glycan array binding signal (z-score),[24],-0.117
same,glycan array binding signal (z-score),[25],-0.171
same,glycan array binding signal (z-score),[26],-0.137
same,glycan array binding signal (z-score),[27],-0.149
same,glycan array binding signal (z-score),[28],-0.179
same,glycan array binding signal (z-score),[29],-0.229
same,glycan array binding signal (z-score),[30],-0.182
same,glycan array binding signal (z-score),[31],-0.164
same,glycan array binding signal (z-score),[32],-0.18
